# Experimental data from the supplement of paper PMC8728848.
# The other results are listed elsewhere or left out.
# B1: Als3-41 (Candida albicans) (protein)
# chain: KTITGVFNSFNSLTWSNAATYNYKGPGTPTWNAVLGWSLDGTSASPGDTFTLNMPCVFKFTTSQTSVDLTAHGVKYATCQFQAGEEFMTFSTLTCTVSNTLTPSIKALGTVTLPLAFNVGGTGSSVDLEDSKCFTAGTNTVTFNDGGKKISINVDFERSNVDPKGYLTDSRVIPSLNKVSTLFVAPQCANGYTSGTMGFANTYGDVQIDCSNIHVGITKGLNDWNYPVSSESFSYTKTCSSNGIFITYKNVPAGYRPFVDAYISATDVNSYTLSYANEYTCAGGYWQRAPFTLRWTGYRNSDAGSNGIVIVATTRTVTDSTTAVTTLPFDPNRDKTKTIEILKPIPTTTITTSYVGVTTSYLTKTAPIGETATVIVD
# Experiments:
# Assay in all cases: glycan array binding signal (z-score within array); higher = stronger binding
# Conditions in all cases: glycan notation: IUPAC condensed, linker removed
# [1] = molecular target: Fuc(a1-2)[Gal(a1-3)]Gal(b1-4)GlcNAc(b1-2)Man(a1-3)[Fuc(a1-2)[Gal(a1-3)]Gal(b1-4)GlcNAc(b1-2)Man(a1-6)]Man(b1-4)GlcNAc(b1-4)GlcNAc
# Method in brief: (§1)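 The binding signal is a Z-score computed within each array. Data were drawn from 3228 arrays in the Consortium for Functional Glycomics database, restricted to those with a known protein sequence. Scores were averaged over arrays of the same protein sequence at different concentrations or buffers, and over linkers, and negative values can be taken as non-binding.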
# [2] = molecular target: Fuc(a1-2)[Gal(a1-3)]Gal(b1-4)GlcNAc(b1-2)Man(a1-3)[Fuc(a1-2)[Gal(a1-3)]Gal(b1-4)GlcNAc(b1-2)Man(a1-6)]Man(b1-4)GlcNAc(b1-4)[Fuc(a1-6)]GlcNAc
# Method in brief: as §1
# [3] = molecular target: Fuc(a1-2)[Gal(a1-3)]Gal(b1-4)GlcNAc(b1-3)GalNAc
# Method in brief: as §1
# [4] = molecular target: Fuc(a1-2)[Gal(a1-3)]Gal(b1-4)GlcNAc(b1-3)[Fuc(a1-2)[Gal(a1-3)]Gal(b1-4)GlcNAc(b1-6)]GalNAc
# Method in brief: as §1
# [5] = molecular target: Fuc(a1-2)[Gal(a1-3)]Gal(b1-4)GlcNAc(b1-6)GalNAc
# Method in brief: as §1
# [6] = molecular target: Fuc(a1-2)[Gal(a1-3)]Gal(b1-4)[Fuc(a1-3)]Glc
# Method in brief: as §1
# [7] = molecular target: Fuc(a1-2)[Gal(a1-3)]Gal(b1-4)[Fuc(a1-3)]GlcNAc
# Method in brief: as §1
# [8] = molecular target: Fuc(a1-2)[Gal(a1-3)]Gal(b1-4)[Fuc(a1-3)]GlcNAc(b1-3)GalNAc
# Method in brief: as §1
# [9] = molecular target: Fuc(a1-2)[Gal(a1-4)]Gal(b1-4)GlcNAc
# Method in brief: as §1
# [10] = molecular target: Fuc(a1-2)[GalNAc(a1-3)]Gal
# Method in brief: as §1
# [11] = molecular target: Fuc(a1-2)[GalNAc(a1-3)]Gal(b1-3)GalNAc(a1-3)[Fuc(a1-2)]Gal(b1-4)GlcNAc
# Method in brief: as §1
# [12] = molecular target: Fuc(a1-2)[GalNAc(a1-3)]Gal(b1-3)GalNAc(b1-3)Gal(a1-4)Gal(b1-4)Glc
# Method in brief: as §1
# [13] = molecular target: Fuc(a1-2)[GalNAc(a1-3)]Gal(b1-3)GlcNAc
# Method in brief: as §1
# [14] = molecular target: Fuc(a1-2)[GalNAc(a1-3)]Gal(b1-3)GlcNAc(b1-2)Man(a1-3)[Fuc(a1-2)[GalNAc(a1-3)]Gal(b1-3)GlcNAc(b1-2)Man(a1-6)]Man(b1-4)GlcNAc(b1-4)GlcNAc
# Method in brief: as §1
# [15] = molecular target: Fuc(a1-2)[GalNAc(a1-3)]Gal(b1-3)GlcNAc(b1-2)Man(a1-3)[Fuc(a1-2)[GalNAc(a1-3)]Gal(b1-3)GlcNAc(b1-2)Man(a1-6)]Man(b1-4)GlcNAc(b1-4)[Fuc(a1-6)]GlcNAc
# Method in brief: as §1
# [16] = molecular target: Fuc(a1-2)[GalNAc(a1-3)]Gal(b1-3)GlcNAc(b1-3)GalNAc
# Method in brief: as §1
# [17] = molecular target: Fuc(a1-2)[GalNAc(a1-3)]Gal(b1-3)GlcNAc(b1-6)GalNAc
# Method in brief: as §1
# [18] = molecular target: Fuc(a1-2)[GalNAc(a1-3)]Gal(b1-4)Glc
# Method in brief: as §1
# [19] = molecular target: Fuc(a1-2)[GalNAc(a1-3)]Gal(b1-4)GlcNAc
# Method in brief: as §1
# [20] = molecular target: Fuc(a1-2)[GalNAc(a1-3)]Gal(b1-4)GlcNAc(b1-2)Man
# Method in brief: as §1
# [21] = molecular target: Fuc(a1-2)[GalNAc(a1-3)]Gal(b1-4)GlcNAc(b1-2)Man(a1-3)[Fuc(a1-2)[GalNAc(a1-3)]Gal(b1-4)GlcNAc(b1-2)Man(a1-6)]Man(b1-4)GlcNAc(b1-4)GlcNAc
# Method in brief: as §1
# [22] = molecular target: Fuc(a1-2)[GalNAc(a1-3)]Gal(b1-4)GlcNAc(b1-2)Man(a1-3)[Fuc(a1-2)[GalNAc(a1-3)]Gal(b1-4)GlcNAc(b1-2)Man(a1-6)]Man(b1-4)GlcNAc(b1-4)[Fuc(a1-6)]GlcNAc
# Method in brief: as §1
# [23] = molecular target: Fuc(a1-2)[GalNAc(a1-3)]Gal(b1-4)GlcNAc(b1-3)Gal(b1-4)GlcNAc
# Method in brief: as §1
# [24] = molecular target: Fuc(a1-2)[GalNAc(a1-3)]Gal(b1-4)GlcNAc(b1-3)Gal(b1-4)GlcNAc(b1-3)Gal(b1-4)GlcNAc
# Method in brief: as §1
# [25] = molecular target: Fuc(a1-2)[GalNAc(a1-3)]Gal(b1-4)GlcNAc(b1-3)GalNAc
# Method in brief: as §1
# [26] = molecular target: Fuc(a1-2)[GalNAc(a1-3)]Gal(b1-4)GlcNAc(b1-3)[Fuc(a1-2)[GalNAc(a1-3)]Gal(b1-4)GlcNAc(b1-6)]GalNAc
# Method in brief: as §1
# [27] = molecular target: Fuc(a1-2)[GalNAc(a1-3)]Gal(b1-4)GlcNAc(b1-6)GalNAc
# Method in brief: as §1
# [28] = molecular target: Fuc(a1-2)[GalNAc(a1-3)]Gal(b1-4)[Fuc(a1-3)]GlcNAc
# Method in brief: as §1
# [29] = molecular target: Fuc(a1-2)[GalNAc(a1-3)]Gal(b1-4)[Fuc(a1-3)]GlcNAc(b1-3)GalNAc
# Method in brief: as §1
# [30] = molecular target: Fuc(a1-2)[GalNAc(a1-4)]Gal(b1-4)GlcNAc
# Method in brief: as §1
# [31] = molecular target: Fuc(a1-2)[GalNAc(b1-3)]Gal
# Method in brief: as §1
# Fuc(a1-3)GlcNAc = molecular target: Fuc(a1-3)GlcNAc
# Method in brief: as §1
# [32] = molecular target: Fuc(a1-3)[Gal(b1-4)]Glc6S
# Method in brief: as §1
# [33] = molecular target: Fuc(a1-3)[Gal(b1-4)]GlcNAc
# Method in brief: as §1
# [34] = molecular target: Fuc(a1-3)[Gal(b1-4)]GlcNAc(b1-2)Man
# Method in brief: as §1
# [35] = molecular target: Fuc(a1-3)[Gal(b1-4)]GlcNAc(b1-2)Man(a1-3)[Fuc(a1-3)[Gal(b1-4)]GlcNAc(b1-2)Man(a1-6)]Man(b1-4)GlcNAc(b1-4)GlcNAc
# Method in brief: as §1
# [36] = molecular target: Fuc(a1-3)[Gal(b1-4)]GlcNAc(b1-2)Man(a1-3)[Fuc(a1-3)[Gal(b1-4)]GlcNAc(b1-2)Man(a1-6)]Man(b1-4)GlcNAc(b1-4)[Fuc(a1-6)]GlcNAc
# Method in brief: as §1
binder,measurement,setting,value
B1,glycan array binding signal (z-score),[1],-0.283
same,glycan array binding signal (z-score),[2],-0.325
same,glycan array binding signal (z-score),[3],-0.244
same,glycan array binding signal (z-score),[4],1.91
same,glycan array binding signal (z-score),[5],-0.229
same,glycan array binding signal (z-score),[6],-0.294
same,glycan array binding signal (z-score),[7],-0.105
same,glycan array binding signal (z-score),[8],-0.129
same,glycan array binding signal (z-score),[9],-0.135
same,glycan array binding signal (z-score),[10],-0.177
same,glycan array binding signal (z-score),[11],-0.283
same,glycan array binding signal (z-score),[12],0.499
same,glycan array binding signal (z-score),[13],0.28
same,glycan array binding signal (z-score),[14],-0.203
same,glycan array binding signal (z-score),[15],-0.264
same,glycan array binding signal (z-score),[16],0.208
same,glycan array binding signal (z-score),[17],-0.242
same,glycan array binding signal (z-score),[18],-0.257
same,glycan array binding signal (z-score),[19],-0.323
same,glycan array binding signal (z-score),[20],-0.243
same,glycan array binding signal (z-score),[21],-0.319
same,glycan array binding signal (z-score),[22],-0.001
same,glycan array binding signal (z-score),[23],-0.321
same,glycan array binding signal (z-score),[24],1.63
same,glycan array binding signal (z-score),[25],-0.251
same,glycan array binding signal (z-score),[26],-0.047
same,glycan array binding signal (z-score),[27],-0.001
same,glycan array binding signal (z-score),[28],0.032
same,glycan array binding signal (z-score),[29],0.369
same,glycan array binding signal (z-score),[30],-0.181
same,glycan array binding signal (z-score),[31],-0.159
same,glycan array binding signal (z-score),Fuc(a1-3)GlcNAc,-0.123
same,glycan array binding signal (z-score),[32],0.208
same,glycan array binding signal (z-score),[33],-0.198
same,glycan array binding signal (z-score),[34],-0.251
same,glycan array binding signal (z-score),[35],1.07
same,glycan array binding signal (z-score),[36],0.268
